Experimental data as given in PubChem BioAssay AID504339 (National Center for Advancing Translational Sciences (NCATS), 2011).
The campaign covered roughly 390,000 compounds. About 17,000 (4.4%) were called active. Inconclusive means that the source gave no clear call. Such entries were picked first, then a sample of the others. Calls come from the whole dose curve; as a rule, active = well fitted inhibition curve with a large enough effect; inconclusive = small, poorly fitted or top-dose-only effect; inactive = no such curve, though single readings can be large or run the other way. Where the call is inconclusive, the potency comes from a doubtful curve fit.

Target: Lysine-specific demethylase 4A (Homo sapiens) (UniProt O75164)
UniProt O75164, sequence (O75164 whole entry, looked up, the tested form may be a part): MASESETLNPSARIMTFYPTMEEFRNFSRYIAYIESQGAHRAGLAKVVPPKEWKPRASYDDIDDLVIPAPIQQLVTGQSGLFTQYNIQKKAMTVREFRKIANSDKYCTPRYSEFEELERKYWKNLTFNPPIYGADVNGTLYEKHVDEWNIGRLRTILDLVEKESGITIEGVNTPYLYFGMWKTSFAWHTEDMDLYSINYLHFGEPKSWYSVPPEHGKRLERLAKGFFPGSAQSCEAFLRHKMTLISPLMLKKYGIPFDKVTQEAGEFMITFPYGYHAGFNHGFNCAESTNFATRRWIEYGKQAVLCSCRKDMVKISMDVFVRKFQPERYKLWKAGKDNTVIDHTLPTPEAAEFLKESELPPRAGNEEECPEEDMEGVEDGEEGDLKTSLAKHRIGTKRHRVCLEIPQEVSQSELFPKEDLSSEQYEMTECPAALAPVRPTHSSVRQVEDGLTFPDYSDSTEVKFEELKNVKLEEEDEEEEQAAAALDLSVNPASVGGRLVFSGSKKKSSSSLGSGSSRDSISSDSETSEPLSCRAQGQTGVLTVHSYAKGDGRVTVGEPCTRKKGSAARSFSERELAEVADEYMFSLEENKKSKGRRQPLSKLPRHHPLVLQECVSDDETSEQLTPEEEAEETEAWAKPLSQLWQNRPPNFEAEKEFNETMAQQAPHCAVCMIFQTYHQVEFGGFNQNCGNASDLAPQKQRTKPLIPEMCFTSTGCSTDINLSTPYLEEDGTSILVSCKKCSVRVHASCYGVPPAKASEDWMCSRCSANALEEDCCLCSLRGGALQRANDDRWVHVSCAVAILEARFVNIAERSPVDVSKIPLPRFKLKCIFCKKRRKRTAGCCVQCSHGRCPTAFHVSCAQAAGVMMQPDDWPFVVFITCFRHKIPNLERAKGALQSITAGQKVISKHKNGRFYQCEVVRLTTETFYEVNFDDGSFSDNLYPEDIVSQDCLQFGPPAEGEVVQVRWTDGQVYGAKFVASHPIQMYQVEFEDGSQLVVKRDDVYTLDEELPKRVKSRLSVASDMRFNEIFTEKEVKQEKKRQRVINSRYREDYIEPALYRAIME
Assay: qHTS Assay for Inhibitors of JMJD2A-Tudor Domain; note: nearly all actives have a fitted effect of over 50% in size
Conditions: AlphaScreen JMJD2A-Tudor / H3K4me3 peptide binding; series mostly up to 114 µM
Potency is the fitted concentration of half-maximal effect; tags give direction and shape of the fitted curve.

Potency, active:
N#Cc1ccccc1N1CCN(C(=O)c2ccc(NC(=O)c3ccc(Br)o3)cc2)CC1 56.2 µM
CC(=O)Nc1ccc(C=NNc2ccc(S(=O)(=O)Nc3ccccc3C(=O)O)cc2[N+](=O)[O-])cc1 50.1 µM
COc1ccc(CN2CCN(C(=O)CC(C)C)CC2)cc1 7.94 µM
O=c1c2ccccc2nc(N/N=C/c2c(O)ccc3ccccc23)n1O 50.1 µM
CCC(C)NCCCOc1cc(Cl)ccc1Cl (centres undefined) 2.51 µM
Cc1ccc(C)c(-c2nn(-c3cc(N4CCN(CCO)CC4)ccc3[N+](=O)[O-])c(=O)c3ccccc23)c1 35.5 µM
c1ccc(CNc2ccc3ccccc3n2)nc1 8.91 µM
O=C(/C=C/c1ccccc1)c1cc(Br)ccc(=O)c1O 56.2 µM
COc1ccc(O)c(C(=O)c2cc(SCC(=O)O)c3nc4sc5c(c4c(=O)n3c2)CCCC5)c1 25.1 µM
COc1ccc(CCNCc2csc3nc4ccccc4n23)cc1OC 89.1 µM
CCc1ccc(/C=C2\SC(=S)N(CCCC(=O)Nc3ccc(C(=O)O)cc3)C2=O)cc1 50.1 µM
COc1ccc(CN2CCC(C(=O)N3CCCC(C)C3)CC2)cc1OC (centres undefined) 17.8 µM

Potency, inconclusive:
CCOc1ccc(Nc2nc(-c3cccc(Cl)c3)c3c(n2)-c2ccccc2OC3)cc1 44.7 µM [inhibitor, partial curve]
CCn1c(C)c(C)c2cc(C(=O)NCC(C)c3ccccc3)ccc21 (centres undefined) 35.5 µM [inhibitor, partial curve]
COc1ccc(CCCc2nnc(SCC(=O)Nc3cccc(F)c3C)o2)cc1 28.2 µM [inhibitor, single point]
Cc1ccc(Cl)cc1NC(=O)CN1C(=O)NC2(CCCCCC2)C1=O 31.6 µM [inhibitor, single point]
CC(C)C1NC(=S)N(C2CCCCC2)C1=O (centres undefined) 31.6 µM [inhibitor, single point]
Cc1nn(-c2ccccc2)c2[nH]c(=O)c(CNc3ccc(N4CCOCC4)cc3)cc12 3.16 µM [inhibitor, single point]
OC(COCC1COc2ccccc2O1)CN1CCN(c2ccc(F)cc2)CC1 (centres undefined) 63.1 µM [inhibitor, single point]
COc1cccc(CNCCc2c[nH]c3ccccc23)c1OCc1ccc(F)cc1 56.2 µM [inhibitor, partial curve]
Clc1ccc(OCCn2ccnc2)c2ccccc12 56.2 µM [inhibitor, partial curve]
Cc1cccc(C2c3[nH]c4ccccc4c3CCN2Cc2ccc(C)s2)n1 (centres undefined) 56.2 µM [inhibitor, partial curve, poor fit]
Cc1ccc(N2CC(=O)N(NC(=O)CN3CCN(c4ccccc4)CC3)CC2=O)cc1 15.8 µM [inhibitor, partial curve]
OCCCn1c(C(CO)Nc2nc(-c3ccc(Cl)cc3)cs2)nc2ccccc21 (centres undefined) 63.1 µM [inhibitor, partial curve]
COc1ccc(OC)c(-n2c(-c3cccc(S(=O)(=O)N(C)C)c3)n[nH]c2=S)c1 28.2 µM [inhibitor, full curve, poor fit]
CCn1cc(C(=O)Nn2cnnc2)c(=O)c2ccc(C)nc21 28.2 µM [inhibitor, partial curve]
CC(CCc1ccccc1)NCc1ccc(Cl)cc1Cl (centres undefined) 89.1 µM [inhibitor, single point]
Cc1cccc(CSc2nnc(-c3cccs3)n2Cc2ccco2)c1 89.1 µM [inhibitor, partial curve]
CC1=CC(C)(C)NC(=S)N1c1cccc2cc(S(=O)(=O)O)ccc12 100 µM [inhibitor, partial curve]
C[C@H](CO)N1C[C@H](C)[C@@H](CN(C)Cc2ccc(-c3ccccc3)cc2)Oc2c(NS(=O)(=O)c3ccccc3)cccc2C1=O 50.1 µM [inhibitor, partial curve]
COc1ccc2[nH]c3c(c2c1)CCN(C(=O)CCC1CCCC1)C3c1ccc(F)cc1 (centres undefined) 39.8 µM [inhibitor, partial curve]
Cc1cc(N/N=C2/CCCc3ccccc32)nc2ccccc12 63.1 µM [inhibitor, partial curve, poor fit]
CCOC(=O)c1c(-c2ccc(C)cc2)csc1/N=C(\C)C1=C(O)c2ccccc2C1=O 31.6 µM [inhibitor, partial curve]
C=CCn1c(C)cc(C(=O)CSc2nnc(Cc3ccccc3)o2)c1C 39.8 µM [inhibitor, partial curve]
CC(C)OCCCNc1ncc2c(n1)CC(c1ccc(N(C)C)cc1)CC2=O (centres undefined) 89.1 µM [inhibitor, single point]
COc1ccc2nc(SCC(=O)Nc3cc(OC)c(OC)cc3C(=O)O)c(C)cc2c1 89.1 µM [inhibitor, single point]
COc1ccc2c(/C=N/NS(=O)(=O)c3ccc(C)cc3)c[nH]c2c1 50.1 µM [inhibitor, partial curve]
Cc1ccc(-c2nn(C(C)(C)C)c3ncnc(NS(=O)(=O)c4ccc([N+](=O)[O-])cc4)c23)cc1 35.5 µM [inhibitor, partial curve]
COc1ccc(CC(=O)Nc2ccc(S(=O)(=O)N3CCOCC3)cc2)cc1 2.82 µM [inhibitor, full curve, poor fit]
O=C(Nc1ccccc1OC(F)F)c1cccc(S(=O)(=O)N2CCCC2)c1 20 µM [inhibitor, partial curve, poor fit]
C=CCN=c1scc(C)n1/N=C/c1ccc(O)c(O)c1 56.2 µM [inhibitor, partial curve]
CCN(CC)c1ccc(/C=N/N2CCN(Cc3ccc(C)cc3)CC2)c(O)c1 3.55 µM [inhibitor, full curve, poor fit]
O=C(CN1C(=O)S/C(=C\c2ccccc2)C1=O)NCCCn1ccnc1 39.8 µM [inhibitor, single point]
COC(=O)c1ccccc1NC(=O)CSc1nnc(-c2cccc(NC(C)=O)c2)n1C 70.8 µM [inhibitor, partial curve]
CC(C)(C)C#CCn1c(/C=[N+](\[O-])C2CCCCC2)nc2ccccc21 15.8 µM [inhibitor, partial curve]
Cc1ccc(S(=O)(=O)N2CCOCC2)cc1C(=O)Nc1cc(S(=O)(=O)N2CCCCC2)ccc1O 56.2 µM [inhibitor, partial curve]
CN(CC(=O)Nc1ccccc1Cl)CC(=O)N(C)c1c(N)n(Cc2ccccc2)c(=O)[nH]c1=O 17.8 µM [inhibitor, partial curve]
COC(=O)C1=C(C(=O)OC)[C@@H]2N(C)c3ccc(OC)cc3[C@@]23C[C@@H](C(=O)OC)N(C(=O)COCc2ccccc2)C3=N1 20 µM [inhibitor, full curve]
C=CCOc1c(Br)cc(/C=N/n2c(CC)n[nH]c2=S)cc1Br 100 µM [inhibitor, partial curve]
O=[N+]([O-])c1cccn2cc(-c3ccc(Br)cc3)nc12 20 µM [inhibitor, full curve]

Potency, inactive:
CC(NC(=O)/C(C#N)=C1\N=C(NC(=O)c2cccs2)c2ccccc21)c1ccccc1 (centres undefined)
CCOC(=O)c1ccc(S(=O)(=O)NNS(=O)(=O)c2ccc(C)cc2)cc1
Cc1cc(C)c2c(n1)nn1c(NCCCN(C)C)cc(C)nc21
O=C(COC(=O)/C=C/C(=O)N1CCN(c2ccccc2)CC1)NC(c1ccccc1)c1ccccc1
CCOc1cc(/C=N\Nc2nc(Nc3ccccc3)nc(N3CCOCC3)n2)ccc1OC(=O)c1ccco1
CCN(CC)CCNC(=O)CCc1c(C)nc2c(c(C)nn2-c2ccc(C)cc2)c1C
CC[C@@]12C(=O)N(c3cccc(Br)c3)C(=O)N1[C@H](c1cccc(C)c1)[C@@H]1C(=O)N(Cc3ccccc3)C(=O)[C@@H]12
CC(C)Cn1cc(NC(=O)N2CCN(c3ccc(F)cc3)CC2)c2ccccc2c1=O
CCOC(=O)C1(C)NC(c2ccc(N(C)C)cc2)C2C(=O)N(c3ccc(OC)cc3)C(=O)C21 (centres undefined)
CCOc1ccc2nc(NC(=O)c3nc(SCc4ccccc4F)ncc3Cl)sc2c1
Cc1[nH]c2ccc(C(=O)OC(C)C(=O)NC3CCCCC3C)cc2c1C (centres undefined)
Cc1cc(F)ccc1S(=O)(=O)NCC1CC2CCC1C2 (centres undefined)
Cc1ccc(NC(=O)C2CCCN(c3ncnc4c3nc3n4CCCCC3)C2)c(Br)c1 (centres undefined)
O=C(c1cccc2ccccc12)N1CCCCC1
Cc1ccc(C)c(NC(=O)CN2C(=O)CCc3cc(S(=O)(=O)N4CCCCC4)ccc32)c1
Cc1cc(Cl)ccc1OCC(=O)N[C@@H](Cc1ccccc1)c1nc2ccccc2[nH]1
Cc1cc(C)c2ccc(C)[n+]([O-])c2c1O
Cc1nc2ccccc2c(=O)n1/N=C/c1ccccn1
COc1ccccc1-c1cc(-c2ccccc2)nc(SC(C(N)=O)c2ccccc2)c1C#N (centres undefined)
